Experimental data from the supplement of paper PMC11417369.
The other results are listed elsewhere or left out.

What follows are sequences tested on PF3D7_0420300 AP2 domain 1 (GST-tagged) (assay: gcPBM binding intensity (ln(normalized median fluorescence intensity)); higher = stronger DNA binding).
Method in brief: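 Binding intensity values are the highest Masliner-normalised natural-log median intensity among replicate spots of either probe orientation. The binding step lasted 1 h in 1× PBS with 1% milk, 0.2 mg/ml BSA, 0.5% salmon testes DNA and 0.03% Triton X-100, using GST-tagged P. falciparum DNA-binding domains expressed in E. coli on an Agilent 4 × 180k array of primer-extended double-stranded 36-bp intergenic genomic probes plus negative controls. Alexa488 anti-GST antibody and a 488 nm scan detected bound protein.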

| Sequence | gcPBM binding intensity (ln) |
| --- | --- |
| TTAATTAATAGACACACACACATATAAATATAGATT [CACACA_site7143] | 10 |
| GTTTTATTAAAAATGTGTACTTAATTATGAAAAAAA [XGTACX_site4689] | 8.91 |
| GTGTATTTTCTGCGCACACACATGCAAAAAGAAATA [CACACA_site1148] | 9.44 |
| GTATCATTAAATTATTGTACATATATATATATATAT [XGTACX_site8809] | 9.45 |
| TATTCCTTCTACAATTAAATAATTATAATAAATATA [GTGCAC_negctrl_site26] | 8.92 |
| AACAAAAATAGAAACACACATACATTGGTTTTCTTT [CACACA_site2534] | 9.44 |
| TATTTTTGTATATATTTATTCTTATTTTACAGGAAA [TGCATGCA_negctrl_site472] | 9.12 |
| ACATTTAAGTTTAGCTGTACATATTCATCATAATTA [XGTACX_site37] | 9.32 |
| AGTTTTATGTAGTGTTGTACTTTATACAAATATATT [XGTACX_site614] | 9.51 |
| GCGGGTTTATCTTTCGCACACCTTACATTTTAGAAT [CACACA_site2015] | 9.41 |
| ATATCACATTCCACGGTACACACTAAAAGAAAAATC [CACACA_site3611] | 9.61 |
| ATAAATCAAAGGCACACACACAAAAAAAAAAAAAAA [CACACA_site160] | 9.82 |
| TGTTTTTTATATTACTGTACATGTTTTGGAATAATA [XGTACX_site4716] | 9.28 |
| ATAAAGCCATACAATACACACATTTGACATGTCCGT [CACACA_site7523] | 9.57 |
| GAAATTTTTAAATACAGTACACACATGGGTTTAAAT [XGTACX_site6124] | 9.47 |
| ATACTTCAATCTATTTGTACATATTTTTTAAAACCA [XGTACX_site2328] | 9.29 |
| AATAATAAAAAATATACACACATATATAAATAAATA [CACACA_site6164] | 9.77 |
| TAAGAAAAAAAATAATGTACATATGTATTTGAGAAA [XGTACX_site3569] | 9.27 |
| TATATATATATATATTGTACTAATTGTGCAAATGAG [XGTACX_site682] | 9.06 |

| Sequence | gcPBM binding intensity (ln) |
| --- | --- |
| AAAAAAAAAAAAAAAAAAAAAAAAAAATATATATAT [CACACA_negctrl_site271] | 9.26 |
| TGCTACTTATAAATAGAACACACATAAGTGTATTTG [CACACA_site9253] | 9.31 |
| AAGAAAAAAAAAAAAAAAAAAAAAAAAAAGGAAAAA [GTGCAC_negctrl_site174] | 9.04 |
| ATTTTTTTTTTTATGTGTACATATATTTTTTTAATT [XGTACX_site7921] | 9.51 |
| ATTTAATTTATAAAAACACACACAGGTAAAAAGGTG [CACACA_site8306] | 9.88 |
| AAGAAAAAATAAACATGTACATAAATATATATATAT [XGTACX_site304] | 9.51 |
| TAAGGCCCTTTTCATCGTACAGTAAAATATAAATAA [XGTACX_site1278] | 9.04 |
| CATACTGTGATAGCACCACACACGCAAAAGAGGGTA [CACACA_site8285] | 9.52 |
| CAAATACATGTGTAAAGTACATATTAATAAGTCTTT [XGTACX_site6342] | 9.4 |
| AATTTAACCCATTTTATAATTATTACCACTATATAT [TGCATGCA_negctrl_site452] | 9.48 |
| GAAAATTCTTAAGGCACACACATATATAATATATAC [CACACA_site569] | 9.77 |
| TATATTAATAGACACACACACATATTTATATTTATA [CACACA_site6859] | 10 |
| TACTGTGATAGCACCACACACGCAAAAGTGAGTATA [CACACA_site1109] | 9.3 |
| TATATTTAGTAAAAAGGTACCATTCTTATTTATATT [CACACA_negctrl_site1165] | 9.13 |
| TTTCAGCCAAACGATAAACTACGACACTTGAACGAA [CACACA_negctrl_site1747] | 9.14 |
| ATATATATATATATATGTACATATTATATATGAACG [XGTACX_site1585] | 9.25 |
| ATATATTTTTTTTCTTCACACACATGAATTATATAT [CACACA_site9053] | 9.85 |
| AATAATAGAAAAAGGTGTACTTATAAACATATACAC [XGTACX_site6921] | 9.5 |
| GTAATTATTATTAATAGTACACACTATGGCATTTCA [XGTACX_site5192] | 9.33 |

| Sequence | gcPBM binding intensity (ln) |
| --- | --- |
| ATAAGAAGGAACATAAATATATCATAAAAAAAAAAA [GTGCAC_negctrl_site169] | 9.26 |
| TAAAATTTTTTATTCACACAAATATAGTTATATATA [CACACA_site5348] | 8.91 |
| AAATTAATATAAATATGTACATAAATAATAAAATAT [XGTACX_site6131] | 9.42 |
| GGAGGTTGTTATAAAAGTACAAAAAGTTGCAATTTT [XGTACX_site7351] | 9.11 |
| ATTTTTCAAACTTTAGTGCAATGAAAGAAAGAAAAA | 8.95 |
| AAGGAATAAAGAAGTTGTACATAATTTGTATCATCC [XGTACX_site3891] | 9.42 |
| GTTTTCCTTCCCTTTCCCCCTCAAAAAAAGGGAACA [TGCATGCA_negctrl_site436] | 9.02 |
| TCATTATATACAATATGTACATATATGTAATAAACA [XGTACX_site4611] | 8.99 |
| AAAGGATATGCTTCATATATATATTGTTATATATGT [CACACA_negctrl_site1672] | 9.24 |
| AAAGAATTCATTATTTGTACTTAAATAAATAAATAA [XGTACX_site5932] | 8.76 |
| AGAAAGAAAGAATACACACACACATATATATATATC [CACACA_site3744] | 10.4 |
| ATAACACAAAAAGGGGGTACAATAAAAAAAAAAAAA [XGTACX_site1652] | 9.1 |
| TATTTATATAGGTATACACACATACAAATATGTAAA [CACACA_site7705] | 9.29 |
| AATACCTATAATACAACACACAAGTAATATAAACCT [CACACA_site7661] | 9.82 |
| TTTAAAATAAATATTACACACAAAATATTAAAAAGC [CACACA_site2129] | 9.74 |
| ATATATACATATGGGTGTACATATGCACATATATAT [XGTACX_site8437] | 9.31 |
| ACAAAAAAAAACGTGGTGCATTAATAATATTGTATA [GTGCAC_site9469] | 9.43 |
| TAGTTAATATGAAAAAGTACACGTTTCAGTGAAAGT [XGTACX_site7402] | 9.46 |
